This note sets out measurements from the supplement of paper PMC7826260.

This is one part of the list. The data describe in vitro nicking of single-stranded DNA by Rep domains for 1 h at 37 °C with 3 µM enzyme; only the middle of the 90-letter strands is printed. The score is log2 (uncut reads / reads without enzyme); strong cutting gives strongly negative numbers. There is no active / inactive call. Counts are relative to all reads; where an enzyme cuts many sequences, the uncut ones exceed 0.

The subject of the assay is T1, Rep nickase domain of tomato golden mosaic virus.
T1 sequence (residues 1-124 of Rep, tag left off): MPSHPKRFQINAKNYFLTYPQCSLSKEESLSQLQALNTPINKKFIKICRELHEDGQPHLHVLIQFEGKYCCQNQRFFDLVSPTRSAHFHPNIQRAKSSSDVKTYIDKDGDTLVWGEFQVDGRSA
As to the kind of experiment: uncleaved DNA left, log2 of reads against the no-enzyme library (log2 ratio); higher = less cleavage (more negative = more Rep cleavage of the k-mer); sequences stand for … in CTCGTCCG…ACCGGAGA
How it is done: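 A pool of 90-nt single-stranded DNAs with seven random bases just before the constant AC of the nick site (name = the seven bases) was cut by 3 µM recombinant His6-SUMO-tagged Rep nickase domain (300 nM DNA, 50 mM HEPES pH 8.0, 50 mM NaCl, 1 mM MnCl2, 1 h, 37 °C, three replicates). Uncut DNA was amplified and sequenced.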
For GCGCAAC, the “uncleaved DNA left (log2)” value is -0.0782.
For CGCGAGT, the “uncleaved DNA left (log2)” value was -0.0439.
With TTTCGCA the figure was -0.194; with GGCTCTC, -0.226; with GACGAGG, 0.138.
Next, GACTAAG: 0.0555.
Turning to CAAATTG, the “uncleaved DNA left (log2)” value turned out to be 0.205.
Next, ATACATA: 0.0775; AAGTCAC: -0.0162; TGTATTA: -0.0991.
With ATACAGG the figure was 0.0442.
With CCAAGTC the figure was -0.0633; with GCTGTGA, 0.0666.
As for CCGATGT, the “uncleaved DNA left (log2)” value is -0.0357.
On to GTCCATT, for which the “uncleaved DNA left (log2)” value came to 0.058.
With ACTTTAT the figure was 0.0779.
Next, ACCTGGC: 0.0191; CCTTGTG: 0.0648; CGGTCCA: 0.107.
Turning to GAAAGCA, the “uncleaved DNA left (log2)” value is -0.0342.
Next, ATGCTAG: 0.00344; TGTCCAC: -0.0409.
For the sequence TAGTGGA, the “uncleaved DNA left (log2)” value is -0.0499.
Regarding CGGATTT, the “uncleaved DNA left (log2)” value is -0.106.
Next, GGTTGCG: -0.0289; CCAAACA: -0.0408.
In the case of TCGGGTT, the “uncleaved DNA left (log2)” value is -0.0172.
Next, CGAAGCC: 0.0569; GTTCCCT: 0.0947.
Next, TTCTATC: -0.181.
For TCGGGTA, the “uncleaved DNA left (log2)” value came to 0.0288.
Next, GGTATCC: 0.0665; CCTGAAA: 0.174.
With ATCGATA the figure was 0.0736.
Next, TGGAGGA: 0.0113.
Regarding CCATGCG, the “uncleaved DNA left (log2)” value was -0.151.
With AGTACAT the figure was 0.133.
As to TCACATA, the “uncleaved DNA left (log2)” value was -0.0689.
With CTCTCAC the figure was -0.134; with AGGCACA, 0.113.
